Measurements as given in ChEMBL document CHEMBL1201862, “PubChem BioAssay data set” (2004).

Test system: NCI-H322M
Experiment: growth of human tumour cells (NCI), 48 h

Q: `Nc1ccn(C2OC(C(OC3OC(CO)C(O)C(N)C3O)C(O)C(O)C(O)C(O)CO)C(N)C(O)C2O)c(=O)n1` (stereo unspecified) was tested. Which GI50 did it give?
A: The GI50 was inactive: 48.2 µM.

Q: `O=C(CC(=O)n1nc(-c2ccccc2)c(/N=N/c2ccccc2Cl)c1-c1ccccc1)Nc1ccc(Cl)cc1` was tested. Which GI50 did it give?
A: The GI50 was inactive: > 100 µM.

Q: `CCCCC1Cc2cc(O)ccc2-c2n1c1cc(O)ccc1[n+]2C.CCCCC1Cc2cc(O)ccc2-c2n1c1ccc(O)cc1[n+]2C` (stereo unspecified) was tested. Which GI50 did it give?
A: Its GI50 is inactive: 61.4 µM.

Q: With `Cc1ccc([N+](=O)[O-])c2c(NCCC[N+](C)(C)[O-])c3ccccc3nc12` as the molecule, how does the GI50 read?
A: Its GI50 is inactive: 1.56 µM.

Q: How did the GI50 turn out when `CC(C)CNC(=O)c1c(NC(=O)c2ccccc2)sc2[nH]c(=O)n(-c3ccccc3)c(=O)c12` was run?
A: Its GI50 is inactive: > 100 µM.

Q: `O=C1CCC2c3ccccc3NCN12` (stereo unspecified) was tested. Which GI50 did it give?
A: Its GI50 is inactive: > 100 µM.

Q: `C/C(=N\O)C1CC(CC(=O)O)C1(C)C` (stereo unspecified) was tested. Which GI50 did it give?
A: Its GI50 is inactive: > 100 µM.

Q: Which GI50 does the source give for `CN(C(=O)C1=CCC2(CC1)OCCO2)c1ccccc1I` here?
A: Its GI50 is inactive: > 100 µM.

Q: How did the GI50 turn out when `COc1cc(CNc2ccc(SC)cc2)cc(OC)c1OC` was run?
A: The GI50 was inactive: 17.5 µM.

Q: Which GI50 does the source give for `Cc1cc(Cc2c(C)c(C)c(Cc3cc(C)cc(C(C)(C)C)c3O)c(C)c2C)c(O)c(C(C)(C)C)c1` here?
A: Its GI50 is inactive: > 100 µM.

Q: For `Cc1nc(C)c(N2CCN(C#N)CC2)c(O)n1`, which GI50 is on record?
A: The GI50 was inactive: > 100 µM.

Q: `C=C1C(=O)O[C@@H]2[C@H]1C[C@@H](O)[C@H](C)[C@@](O)(C(=O)/C=C/C)[C@H]2OC(=O)C(C)CC` (stereo partly specified) was tested. Which GI50 did it give?
A: Its GI50 is inactive: 32 µM.

Q: `COc1ccc(/C=C2\C(=O)NC(=O)c3ccccc32)cc1OC` was tested. Which GI50 did it give?
A: The GI50 was inactive: > 93.8 µM.

Q: `COC(=O)c1c(C)cccc1/C=C1\Cc2ccc(C)c(C)c2C1=O` was tested. Which GI50 did it give?
A: Its GI50 is inactive: > 100 µM.

Q: Which GI50 does the source give for `CCOC(=O)/C(C(N)=O)=C(O)/C(O)=C(\Br)C(=O)c1ccccc1` here?
A: The GI50 was inactive: 45.9 µM.

Q: `CCOC1C=CCCO1` (stereo unspecified) was tested. Which GI50 did it give?
A: Its GI50 is inactive: > 100 µM.

Q: `CCOC(=O)C1S/C(=N\c2ccc(C)c(C)c2)N=C1C` (stereo unspecified) was tested. Which GI50 did it give?
A: Its GI50 is inactive: > 100 µM.

Q: How did the GI50 turn out when `CC(C)(C)c1cc(Oc2ccc(C#N)c(C#N)c2)cc(C(C)(C)C)c1` was run?
A: The GI50 was inactive: > 100 µM.

Q: How did the GI50 turn out when `NC(=O)c1cccc([N+](=O)[O-])c1` was run?
A: The GI50 was inactive: > 100 µM.

Q: `COC1=C2CC(C)CC(OC)C(OC(=O)CN)[C@H](C)/C=C(\C)C(OC(N)=O)C(OC)/C=C\C=C(/C)C(=O)NC(=CC1=O)C2=O` (stereo partly specified) was tested. Which GI50 did it give?
A: The GI50 was inactive: 12.7 µM.

Q: `CCc1cccc(C(C)C)c1NC(=O)C(=O)C(CC(=O)Nc1ccc(Cl)c(Cl)c1)C(=O)OC` (stereo unspecified) was tested. Which GI50 did it give?
A: The GI50 was inactive: > 100 µM.

Q: How did the GI50 turn out when `C#CCN(C(=O)C(F)(F)F)c1ccc(C(=O)c2ccc(N(CC#C)C(=O)C(F)(F)F)cc2)cc1` was run?
A: Its GI50 is inactive: 38.7 µM.

Q: `O=c1c2cccnc2ncn1CCN1CCCC1` was tested. Which GI50 did it give?
A: Its GI50 is inactive: > 100 µM.

Q: `CC12CC3(C)CC(C)(C1)CC(N=[N+]=[N-])(C2)C3` was tested. Which GI50 did it give?
A: Its GI50 is inactive: > 100 µM.

Q: How did the GI50 turn out when `O=NN(CCF)C(=O)NC1CC2CCC1C2` (stereo unspecified) was run?
A: Its GI50 is inactive: > 100 µM.

Q: `O=C(/N=S(/NC(=O)c1ccccc1)C(Cl)(Cl)Cl)c1ccccc1` (stereo unspecified) was tested. Which GI50 did it give?
A: Its GI50 is inactive: 44.4 µM.

Q: For `CCCCCCCCCCCC(=O)c1c(O)cccc1O`, which GI50 is on record?
A: Its GI50 is inactive: 19.2 µM.

Q: `COc1ccc2c(c1)CC[C@@H]1[C@@H]2CC[C@]2(C)C(=O)/C(=C/c3ccc(C#N)cc3)C[C@@H]12` was tested. Which GI50 did it give?
A: Its GI50 is inactive: > 100 µM.

Q: `Cc1[nH]c(=O)nc(S)c1C(=O)NC1C2CCCCC2NC2CCCCC21` (stereo unspecified) was tested. Which GI50 did it give?
A: Its GI50 is inactive: 22.2 µM.

Q: With `CN(C)C(=O)/C=C/c1c[nH]c(=O)[nH]c1=O` as the molecule, how does the GI50 read?
A: The GI50 was inactive: > 500 µM.

Q: With `C=C1C(=O)OC2/C=C(\C=O)CC/C=C(\C)C(O)C[C@@H]12` (stereo partly specified) as the molecule, how does the GI50 read?
A: The GI50 was inactive: 15.8 µM.

Q: Which GI50 does the source give for `CC1=C(C(=O)OC(C)C)C(c2ccccc2C(F)(F)F)C(C(=O)OC(CO[N+](=O)[O-])CO[N+](=O)[O-])=C(C)N1` (stereo unspecified) here?
A: Its GI50 is inactive: 28.1 µM.

Q: Which GI50 does the source give for `O=P1(O)c2ccccc2CS(=O)(=O)Cc2ccccc21` here?
A: The GI50 was inactive: > 100 µM.

Q: Which GI50 does the source give for `CC1=CC(=O)/C(=C/n2c(=S)[nH]c3ccc([N+](=O)[O-])cc32)C(=O)O1` here?
A: The GI50 was inactive: > 100 µM.

Q: With `CCCCOc1ccc(S(=O)(=O)N/C(=N\O)Nc2ccc(Cl)cc2)cc1` as the molecule, how does the GI50 read?
A: Its GI50 is inactive: 15.9 µM.

Q: How did the GI50 turn out when `Brc1ccccc1/C=N\C12CC3CC(CC(C3)C1)C2` was run?
A: Its GI50 is inactive: > 100 µM.

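96-well plates; 48 h exposure; 5 concentrations. Endpoints by linear interpolation between flanking doses. Not reached: highest tested concentration assigned. GI50 = concentration required for 50% inhibition of growth.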 Activity calls are given as the source filed them. Cut-off read from the data, not from the text of the source: active = GI50 up to about 1.1 µM and inactive = higher.
